The list shows a part of the results.
Tests used:
Experiment in all cases: glycan array binding signal (z-score within array); higher = stronger binding
Details in all cases: glycan notation: IUPAC condensed, linker removed
[1] = target: Gal(b1-3)GlcNAc(b1-6)[Gal(b1-3)]GalNAc
In short: (§1)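 The Consortium for Functional Glycomics database supplied 3228 glycan arrays, of which those lacking an available protein sequence were dropped. The binding signal, a within-array Z-score, was averaged across arrays of the same protein sequence and across linkers. Negative scores can be read as non-binding.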

Gal(b1-3)GlcNAc6S = target: Gal(b1-3)GlcNAc6S
In short: as §1

[2] = target: Gal(b1-3)[Fuc(a1-4)]GlcNAc
In short: as §1

[3] = target: Gal(b1-3)[Fuc(a1-4)]GlcNAc(b1-2)Man
In short: as §1

[4] = target: Gal(b1-3)[Fuc(a1-4)]GlcNAc(b1-2)Man(a1-3)[Gal(b1-3)[Fuc(a1-4)]GlcNAc(b1-2)Man(a1-6)]Man(b1-4)GlcNAc(b1-4)[Fuc(a1-6)]GlcNAc
In short: as §1

[5] = target: Gal(b1-3)[Fuc(a1-4)]GlcNAc(b1-3)Gal(b1-3)[Fuc(a1-4)]GlcNAc
In short: as §1

[6] = target: Gal(b1-3)[Fuc(a1-4)]GlcNAc(b1-3)Gal(b1-4)[Fuc(a1-3)]GlcNAc
In short: as §1

[7] = target: Gal(b1-3)[Fuc(a1-4)]GlcNAc(b1-6)GalNAc
In short: as §1

[8] = target: Gal(b1-3)[GlcNAc(b1-6)]GalNAc
In short: as §1

[9] = target: Gal(b1-3)[Neu5Ac(a2-6)]GalNAc
In short: as §1

[10] = target: Gal(b1-3)[Neu5Ac(a2-6)]GlcNAc(b1-4)Gal(b1-4)Glc
In short: as §1

[11] = target: Gal(b1-3)[Neu5Ac(b2-6)]GalNAc
In short: as §1

Gal(b1-4)Gal = target: Gal(b1-4)Gal
In short: as §1

[12] = target: Gal(b1-4)GalNAc(a1-3)[Fuc(a1-2)]Gal(b1-4)GlcNAc
In short: as §1

[13] = target: Gal(b1-4)GalNAc(b1-3)[Fuc(a1-2)]Gal(b1-4)GlcNAc
In short: as §1

Gal(b1-4)Glc = target: Gal(b1-4)Glc
In short: as §1

Gal(b1-4)Glc6S = target: Gal(b1-4)Glc6S
In short: as §1

Gal(b1-4)GlcNAc = target: Gal(b1-4)GlcNAc
In short: as §1

[14] = target: Gal(b1-4)GlcNAc(a1-6)Gal(b1-4)GlcNAc
In short: as §1

Gal(b1-4)GlcNAc(b1-2)Man = target: Gal(b1-4)GlcNAc(b1-2)Man
In short: as §1

[15] = target: Gal(b1-4)GlcNAc(b1-2)Man(a1-3)Man(b1-4)GlcNAc(b1-4)GlcNAc
In short: as §1

[16] = target: Gal(b1-4)GlcNAc(b1-2)Man(a1-3)[Gal(b1-4)GlcNAc(b1-2)Man(a1-6)]Man(b1-4)GlcNAc(b1-4)GlcNAc
In short: as §1

[17] = target: Gal(b1-4)GlcNAc(b1-2)Man(a1-3)[Gal(b1-4)GlcNAc(b1-2)Man(a1-6)]Man(b1-4)GlcNAc(b1-4)[Fuc(a1-6)]GlcNAc
In short: as §1

[18] = target: Gal(b1-4)GlcNAc(b1-2)Man(a1-3)[Gal(b1-4)GlcNAc(b1-2)Man(a1-6)][Gal(b1-4)GlcNAc(b1-4)]Man(b1-4)GlcNAc(b1-4)[Fuc(a1-6)]GlcNAc
In short: as §1

[19] = target: Gal(b1-4)GlcNAc(b1-2)Man(a1-3)[Gal(b1-4)GlcNAc(b1-2)Man(a1-6)][GlcNAc(b1-4)]Man(b1-4)GlcNAc(b1-4)[Fuc(a1-6)]GlcNAc
In short: as §1

[20] = target: Gal(b1-4)GlcNAc(b1-2)Man(a1-3)[GlcNAc(b1-2)Man(a1-6)]Man(b1-4)GlcNAc(b1-4)GlcNAc
In short: as §1

[21] = target: Gal(b1-4)GlcNAc(b1-2)Man(a1-3)[GlcNAc(b1-4)][Gal(b1-4)GlcNAc(b1-2)Man(a1-6)]Man(b1-4)GlcNAc(b1-4)GlcNAc
In short: as §1

[22] = target: Gal(b1-4)GlcNAc(b1-2)Man(a1-3)[Man(a1-6)]Man(b1-4)GlcNAc(b1-4)GlcNAc
In short: as §1

[23] = target: Gal(b1-4)GlcNAc(b1-2)Man(a1-6)Man(b1-4)GlcNAc(b1-4)GlcNAc
In short: as §1

[24] = target: Gal(b1-4)GlcNAc(b1-2)Man(a1-6)[GlcNAc(b1-2)Man(a1-3)]Man(b1-4)GlcNAc(b1-4)GlcNAc
In short: as §1

[25] = target: Gal(b1-4)GlcNAc(b1-2)Man(a1-6)[Man(a1-3)]Man(b1-4)GlcNAc(b1-4)GlcNAc
In short: as §1

[26] = target: Gal(b1-4)GlcNAc(b1-2)[Gal(b1-4)GlcNAc(b1-4)]Man(a1-3)[Gal(b1-4)GlcNAc(b1-2)Man(a1-6)]Man(b1-4)GlcNAc(b1-4)GlcNAc
In short: as §1

[27] = target: Gal(b1-4)GlcNAc(b1-2)[Gal(b1-4)GlcNAc(b1-4)]Man(a1-3)[Gal(b1-4)GlcNAc(b1-2)[Gal(b1-4)GlcNAc(b1-6)]Man(a1-6)]Man(b1-4)GlcNAc(b1-4)GlcNAc
In short: as §1

[28] = target: Gal(b1-4)GlcNAc(b1-2)[Gal(b1-4)GlcNAc(b1-4)]Man(a1-3)[GlcNAc(b1-4)][Gal(b1-4)GlcNAc(b1-2)Man(a1-6)]Man(b1-4)GlcNAc(b1-4)GlcNAc
In short: as §1

[29] = target: Gal(b1-4)GlcNAc(b1-2)[Gal(b1-4)GlcNAc(b1-4)]Man(a1-3)[GlcNAc(b1-4)][Gal(b1-4)GlcNAc(b1-2)[Gal(b1-4)GlcNAc(b1-6)]Man(a1-6)]Man(b1-4)GlcNAc(b1-4)GlcNAc
In short: as §1

[30] = target: Gal(b1-4)GlcNAc(b1-2)[Gal(b1-4)GlcNAc(b1-6)]Man(a1-6)[Gal(b1-4)GlcNAc(b1-2)Man(a1-3)]Man(b1-4)GlcNAc(b1-4)GlcNAc
In short: as §1

[31] = target: Gal(b1-4)GlcNAc(b1-2)[Gal(b1-4)GlcNAc(b1-6)]Man(a1-6)[Gal(b1-4)GlcNAc(b1-2)Man(a1-3)]Man(b1-4)GlcNAc(b1-4)[Fuc(a1-6)]GlcNAc
In short: as §1

[32] = target: Gal(b1-4)GlcNAc(b1-2)[Gal(b1-4)GlcNAc(b1-6)]Man(a1-6)[GlcNAc(b1-4)][Gal(b1-4)GlcNAc(b1-2)Man(a1-3)]Man(b1-4)GlcNAc(b1-4)GlcNAc
In short: as §1

[33] = target: Gal(b1-4)GlcNAc(b1-2)[Gal(b1-4)GlcNAc(b1-6)]Man(a1-6)[GlcNAc(b1-4)][Gal(b1-4)GlcNAc(b1-2)[Gal(b1-4)GlcNAc(b1-4)]Man(a1-3)]Man(b1-4)GlcNAc(b1-4)[Fuc(a1-6)]GlcNAc
In short: as §1

[34] = target: Gal(b1-4)GlcNAc(b1-3)Gal(b1-3)GalNAc
In short: as §1

[35] = target: Gal(b1-4)GlcNAc(b1-3)Gal(b1-3)GlcNAc
In short: as §1

[36] = target: Gal(b1-4)GlcNAc(b1-3)Gal(b1-4)Glc
In short: as §1

[37] = target: Gal(b1-4)GlcNAc(b1-3)Gal(b1-4)GlcNAc
In short: as §1

[38] = target: Gal(b1-4)GlcNAc(b1-3)Gal(b1-4)GlcNAc(b1-2)Man(a1-3)[Gal(b1-4)GlcNAc(b1-3)Gal(b1-4)GlcNAc(b1-2)Man(a1-6)]Man(b1-4)GlcNAc(b1-4)GlcNAc
In short: as §1

[39] = target: Gal(b1-4)GlcNAc(b1-3)Gal(b1-4)GlcNAc(b1-2)Man(a1-3)[Gal(b1-4)GlcNAc(b1-3)Gal(b1-4)GlcNAc(b1-2)Man(a1-6)]Man(b1-4)GlcNAc(b1-4)[Fuc(a1-6)]GlcNAc
In short: as §1

B1: LecB PA7 (Pseudomonas aeruginosa) (protein)
chain: MATQGVFTLPANTRFGVTAFANSSATQTVKVLVNNETAATFTGQSTNNAVIGSQVLNSGGGGKVQIQVSVNGRSSDLVSAQVILANELNVALVGSEDSTDNDYNDAVVVINWPLG
- glycan array binding signal (z-score) [1]: -0.412
- glycan array binding signal (z-score) (Gal(b1-3)GlcNAc6S): -0.512
- glycan array binding signal (z-score) [2]: 2.51
- glycan array binding signal (z-score) [3]: 0.08
- glycan array binding signal (z-score) [4]: 0.033
- glycan array binding signal (z-score) [5]: 3.31
- glycan array binding signal (z-score) [6]: 3.44
- glycan array binding signal (z-score) [7]: 0.473
- glycan array binding signal (z-score) [8]: -0.509
- glycan array binding signal (z-score) [9]: -0.511
- glycan array binding signal (z-score) [10]: -0.504
- glycan array binding signal (z-score) [11]: -0.515
- glycan array binding signal (z-score) (Gal(b1-4)Gal): -0.495
- glycan array binding signal (z-score) [12]: -0.46
- glycan array binding signal (z-score) [13]: -0.478
- glycan array binding signal (z-score) (Gal(b1-4)Glc): -0.502
- glycan array binding signal (z-score) (Gal(b1-4)Glc6S): -0.474
- glycan array binding signal (z-score) (Gal(b1-4)GlcNAc): -0.512
- glycan array binding signal (z-score) [14]: -0.515
- glycan array binding signal (z-score) (Gal(b1-4)GlcNAc(b1-2)Man): -0.495
- glycan array binding signal (z-score) [15]: -0.499
- glycan array binding signal (z-score) [16]: -0.502
- glycan array binding signal (z-score) [17]: -0.125
- glycan array binding signal (z-score) [18]: 0.387
- glycan array binding signal (z-score) [19]: 0.17
- glycan array binding signal (z-score) [20]: -0.437
- glycan array binding signal (z-score) [21]: -0.505
- glycan array binding signal (z-score) [22]: -0.34
- glycan array binding signal (z-score) [23]: -0.486
- glycan array binding signal (z-score) [24]: -0.49
- glycan array binding signal (z-score) [25]: 0.916
- glycan array binding signal (z-score) [26]: -0.279
- glycan array binding signal (z-score) [27]: -0.248
- glycan array binding signal (z-score) [28]: -0.514
- glycan array binding signal (z-score) [29]: -0.512
- glycan array binding signal (z-score) [30]: -0.417
- glycan array binding signal (z-score) [31]: 0.553
- glycan array binding signal (z-score) [32]: -0.491
- glycan array binding signal (z-score) [33]: -0.064
- glycan array binding signal (z-score) [34]: -0.502
- glycan array binding signal (z-score) [35]: -0.255
- glycan array binding signal (z-score) [36]: -0.468
- glycan array binding signal (z-score) [37]: -0.503
- glycan array binding signal (z-score) [38]: -0.495
- glycan array binding signal (z-score) [39]: 0.388

Reference: the supplement of paper PMC8728848
